# Reference: PubChem BioAssay (NCATS)
# This list was built around the results that the source calls inconclusive (neither active nor inactive); the mix of calls is not that of the screen. Where the call is inconclusive, the potency comes from a doubtful curve fit. The source made the active and inactive calls. Calls come from the whole dose curve; as a rule, active = well fitted cell-killing curve with a large enough effect; inconclusive = small, poorly fitted or top-dose-only effect, or effect the other way; inactive = no such curve, though single readings can be large or run the other way.
# Experiments:
# [1] = Viability qHTS for spleen associated tyrosine kinase inhibitor (SYKi) naive MV4-11 cells (AID 1963823); conditions: MV4-11 AML viability, CellTiter-Glo luminescence, 72 h; series mostly up to 45 µM; note: nearly all actives have a fitted effect of over 40% in size
# Summary of the method: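 Cells: MV4-11, SYK inhibitor naive, 500 per well. Treatment: library compounds, 72 hr, 37 C, 5% CO2. Read-out: CellTiter-Glo luminescence after 10 min RT.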
# [2] = Viability qHTS for spleen associated tyrosine kinase inhibitor (SYKi) drug resistant MV4-11 cells (AID 1963824); note: nearly all actives have a fitted effect of over 35% in size
# Summary of the method: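 SYK inhibitor-resistant MV4-11 AML cells, 500 per well, added to predispensed compounds and incubated 72 hr at 37 C, 5% CO2. Viability measured by CellTiter-Glo luminescence after 10 min at room temperature.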
# Potency is the fitted concentration of half-maximal effect; tags give direction and shape of the fitted curve.
Compound,Potency [1],Potency [2]
COc1c2c(c(C)c3c1C(=O)OC3)OC1(C)CC(O)C34OC(OC)(CC(OC(C)=O)C3(C)C1C2)OC4(C)C (configuration not stated),inactive,inactive
CC(C)C(=O)OC[C@@]1(N=[N+]=[N-])O[C@@H](n2ccc(N)nc2=O)[C@H](OC(=O)C(C)C)[C@@H]1OC(=O)C(C)C,"inconclusive: 10.3 µM [cytotoxic, partial curve]","inconclusive: 8.2 µM [cytotoxic, partial curve]"
COC(=O)c1ccc(O[C@@H]2O[C@H](CO)[C@@H](O)[C@H](O)[C@H]2O)c(OC)c1,"inconclusive: 0.321 µM [cytotoxic, partial curve, poor fit]",inactive
CCCCn1c(-c2ccccc2)nc(-c2ccccc2)c1CN(Cc1ccc2c(c1)OCO2)Cc1ccc2c(c1)OCO2,"inconclusive: 16.4 µM [cytotoxic, partial curve]","inconclusive: 11.6 µM [cytotoxic, partial curve]"
CC(C)(O)C1CCC2(C)CCCC(C)(O)C2C1 (configuration not stated),"inconclusive: 29.1 µM [cytotoxic, single point]","inconclusive: 16.4 µM [cytotoxic, partial curve, poor fit]"
C=C(C)C(=O)O[C@H]1[C@H]2C(=C)C(=O)O[C@@H]2/C=C(\CO)CC/C=C(/C=O)[C@@H]1O,active: 10.1 µM,active: 9.04 µM
Cc1ccnn1-c1ccc(C(=O)N2CCN(S(=O)(=O)c3ccc(Cl)c(C(F)(F)F)c3)CC2)cc1,inactive,"inconclusive: 6.51 µM [cytotoxic, single point]"
COc1ccc(-c2oc3c(CC=C(C)C)c(OC4O[C@H](CO)[C@@H](O)[C@H](O)[C@H]4O)cc(O)c3c(=O)c2OC2O[C@@H](C)[C@H](O)[C@@H](O)[C@H]2O)cc1 (some centres not stated),"inconclusive: 20.9 µM [cytotoxic, partial curve, poor fit]","inconclusive: 20.9 µM [cytotoxic, partial curve]"
CC(C)CCNc1ncccc1C(=O)N1CCN(Cc2ccccc2)CC1,"inconclusive: 6.51 µM [cytotoxic, partial curve, poor fit]","inconclusive: 8.2 µM [cytotoxic, partial curve]"
C[C@@H]1C(=O)O[C@H]2CC34[C@H]5C[C@@H](C(C)(C)C)C36[C@@H](OC(=O)[C@@H]6O)OC4(C(=O)O5)[C@]21O (some centres not stated),inactive,inactive
O=C(N[C@H](Cc1cscn1)C(=O)N[C@@H](CC1CCCCC1)[C@@H](O)[C@@H](O)C1CC1)c1nc2ccccc2[nH]1,"inconclusive: 18.4 µM [cytotoxic, single point]","inconclusive: 13 µM [cytotoxic, partial curve]"
NCCNC(=O)c1ccc(Cl)cn1,"inconclusive: 2.66 µM [rising, partial curve, poor fit]","inconclusive: 0.133 µM [rising, full curve, poor fit]"
O=C(NCCN1CCC(n2c(=O)[nH]c3ccccc32)CC1)c1ccc2ccccc2c1,"inconclusive: 23.1 µM [cytotoxic, partial curve]","inconclusive: 20.6 µM [cytotoxic, single point]"
COc1cc(C2Oc3c(OC)cc(CCCO)cc3C2CO)ccc1O[C@H]1O[C@H](C)[C@@H](O)[C@H](O)[C@@H]1O (some centres not stated),inactive,inactive
O=C(Nc1ccccc1)N1CCC(Cc2cnc3ccccc3c2)CC1,"inconclusive: 18.4 µM [cytotoxic, partial curve]","inconclusive: 23.1 µM [cytotoxic, partial curve]"
CC(=O)OC12COC1CC(O)C1(C)C(=O)C(O)C3=C(C)C(OC(=O)C(O)C(NC(=O)OC(C)(C)C)c4ccccc4)CC(O)(C(OC(=O)c4ccccc4)C21)C3(C)C (configuration not stated),"inconclusive: 0.0073 µM [cytotoxic, full curve]","inconclusive: 0.0082 µM [cytotoxic, full curve, poor fit]"
CC(O)(C(=O)O)C1CCC2(C)C1CCC1(C)C2CCC2C3(C)CCC(O)C(C)(COC4OC(CO)C(O)C(O)C4O)C3CCC21C (configuration not stated),inactive,inactive
CC1CCC2(C(=O)O)CCC3(C)C(=CCC4C5(C)CCC(O)C(C)(C(=O)O)C5CCC43C)C2C1(C)O (configuration not stated),inactive,inactive
O=C(Cc1c(F)cccc1F)Nc1cc(OCc2ccc(Cl)cc2)ccn1,"inconclusive: 16.4 µM [cytotoxic, partial curve, poor fit]",active: 14.6 µM
COC(=O)C1(Cc2ccc(O)cc2)OC(=O)C(OC)=C1c1ccc(O)cc1 (configuration not stated),"inconclusive: 1.61 µM [cytotoxic, full curve]","inconclusive: 8.05 µM [cytotoxic, partial curve, poor fit]"
CC1(C)CC2C3=CCC4[C@@]5(C)CC[C@H](OC6OCC(O)C(OC7OC(CO)C(O)C(O)C7O)C6O)C(C)(C)C5CC[C@@]4(C)[C@]3(C)C[C@H](O)[C@@]2(CO)[C@H](OC(=O)c2ccccc2)C1 (some centres not stated),"inconclusive: 2.46 µM [cytotoxic, partial curve, poor fit]","inconclusive: 3.9 µM [cytotoxic, partial curve, poor fit]"

Compound,Potency [1],Potency [2]
N#Cc1cccc(C#N)c1-c1nc2c3ccccc3c3cc(Cl)ccc3c2[nH]1,"inconclusive: 29.1 µM [cytotoxic, single point]","inconclusive: 25.9 µM [cytotoxic, single point]"
CC1CC=C2C1CC1(O)C(=O)CC2(C)C1(C)CO (configuration not stated),inactive,"inconclusive: 0.461 µM [cytotoxic, partial curve, poor fit]"
Oc1ccc2nc(CN3CCC(Cc4ccccc4F)CC3)[nH]c2c1,"inconclusive: 23.1 µM [cytotoxic, single point]","inconclusive: 18.4 µM [cytotoxic, single point]"
CC[C@@H]1[C@H]2CCCCN3C(=O)C[C@H]([C@@H]4[C@H]1OC(=O)[C@H]4C)[C@@H]23,"inconclusive: 14.6 µM [cytotoxic, partial curve, poor fit]",inactive
CC1CC(=O)[C@]2(O)C(C(=O)OCCc3ccc(O)c(O)c3)=CO[C@@H](O[C@@H]3O[C@H](CO)[C@@H](O)[C@H](O)[C@H]3O)[C@H]12 (some centres not stated),inactive,inactive
CCN(CC)c1ccc(C(=C2C=CC(=[N+](CC)CC)C=C2)c2cc(S(=O)(=O)O)ccc2S(=O)(=O)[O-])cc1,"inconclusive: 13.3 µM [cytotoxic, partial curve]","inconclusive: 15 µM [cytotoxic, partial curve]"
CN(C)c1cc(NC(=O)CNC(C)(C)C)c(O)c2c1C[C@H]1C[C@H]3[C@H](N(C)C)C(=O)C(C(N)=O)=C(O)[C@]3(O)C(=O)C1=C2O,inactive,inactive
CCN(CC)C(=O)C(c1ccccc1)N1CCN(c2ccc(NC(=O)c3ccccc3-c3cccnc3)cc2F)CC1 (configuration not stated),inactive,inactive
C[C@H]1[C@H](C)CC[C@]2(C(=O)O)CC[C@]3(C)C(=CC[C@@H]4[C@@]5(C)C[C@@H](O)[C@H](O)[C@@](C)(CO)[C@@H]5CC[C@]43C)[C@H]12,"inconclusive: 11.6 µM [cytotoxic, partial curve, poor fit]","inconclusive: 16.6 µM [cytotoxic, partial curve, poor fit]"
O=C(CS)Nc1ccccc1,"inconclusive: 33.5 µM [cytotoxic, single point]","inconclusive: 33.5 µM [cytotoxic, single point]"
Cc1ccc(S(=O)(=O)n2ccc(-c3c(-c4ccc(Cl)cc4)noc3C)n2)cc1,"inconclusive: 20.6 µM [cytotoxic, partial curve]","inconclusive: 14.6 µM [cytotoxic, partial curve]"
CCCNCCOc1ccc(NC(=O)c2c[nH]c3c2C(=O)CCC3)cc1F,"inconclusive: 1.46 µM [cytotoxic, full curve]",active: 2.91 µM
CC(CCc1ccccc1)NCC(O)c1ccc(O)c(C(N)=O)c1 (configuration not stated),"inconclusive: 9.2 µM [cytotoxic, partial curve, poor fit]","inconclusive: 7.31 µM [cytotoxic, partial curve, poor fit]"
Cc1ccc(C)c(S(=O)(=O)n2cnc3ccccc32)c1,inactive,inactive
COC(=O)[C@H](c1ccccc1Cl)N1CCC2SC(=O)C=C2C1 (some centres not stated),"inconclusive: 0.116 µM [rising, full curve, poor fit]","inconclusive: 20.6 µM [cytotoxic, single point]"
C=C1C[C@]23C[C@@]1(O)CC[C@H]2[C@@]12C=C[C@H](O)[C@@](C)(C(=O)O1)[C@H]2[C@@H]3C(=O)O,inactive,inactive
C=C1CCCC2(C)CC3(OC)OC(=O)C(C)=C3CC12 (configuration not stated),"inconclusive: 25.9 µM [cytotoxic, single point]","inconclusive: 1.84 µM [cytotoxic, partial curve, poor fit]"
C=C1CC[C@@H]2[C@](C)(CC[C@H](O)[C@@]2(C)CCC=C(C)C)[C@@H]1Cc1c[nH]c2ccccc12,"inconclusive: 11.2 µM [cytotoxic, single point]","inconclusive: 7.09 µM [cytotoxic, partial curve]"
CCOC(=O)c1cnn(-c2ccccc2)c1NC(=O)c1cc2nc(-c3ccco3)cc(C(F)(F)Cl)n2n1,inactive,inactive
C/C(=C\C(=O)C[C@@]12C(=O)O[C@]3(C)CC[C@H]1C[C@H]23)C(N)=O,"inconclusive: 2.06 µM [rising, partial curve, poor fit]","inconclusive: 0.0116 µM [rising, full curve, poor fit]"
